Measured values published in the supplement of paper PMC8728848.
This is one part of the list.

Columns and labels:
Test in all cases: glycan array binding signal (z-score within array); higher = stronger binding
Conditions in all cases: glycan notation: IUPAC condensed, linker removed
Fuc(a1-2)Gal = molecular target: Fuc(a1-2)Gal
How it was run: (§1)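 Columns mapping to the same glycan were averaged after glycan names were converted to IUPAC-condensed notation. The data come from 3228 arrays in the Consortium for Functional Glycomics database, limited to those with an available protein sequence. Binding is reported as a within-array Z-score averaged across arrays of one protein sequence and across linkers.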

Fuc(a1-2)Gal(b1-3)GalNAc = molecular target: Fuc(a1-2)Gal(b1-3)GalNAc
How it was run: as §1

[1] = molecular target: Fuc(a1-2)Gal(b1-3)GalNAc(a1-3)[Fuc(a1-2)]Gal(b1-4)Glc
How it was run: as §1

[2] = molecular target: Fuc(a1-2)Gal(b1-3)GalNAc(a1-3)[Fuc(a1-2)]Gal(b1-4)GlcNAc
How it was run: as §1

[3] = molecular target: Fuc(a1-2)Gal(b1-3)GalNAc(b1-3)Gal
How it was run: as §1

[4] = molecular target: Fuc(a1-2)Gal(b1-3)GalNAc(b1-3)Gal(a1-4)Gal(b1-4)Glc
How it was run: as §1

[5] = molecular target: Fuc(a1-2)Gal(b1-3)GalNAc(b1-4)[Neu5Ac(a2-3)]Gal(b1-4)Glc
How it was run: as §1

Fuc(a1-2)Gal(b1-3)GlcNAc = molecular target: Fuc(a1-2)Gal(b1-3)GlcNAc
How it was run: as §1

[6] = molecular target: Fuc(a1-2)Gal(b1-3)GlcNAc(b1-2)Man(a1-3)[Fuc(a1-2)Gal(b1-3)GlcNAc(b1-2)Man(a1-6)]Man(b1-4)GlcNAc(b1-4)GlcNAc
How it was run: as §1

[7] = molecular target: Fuc(a1-2)Gal(b1-3)GlcNAc(b1-2)Man(a1-3)[Fuc(a1-2)Gal(b1-3)GlcNAc(b1-2)Man(a1-6)]Man(b1-4)GlcNAc(b1-4)[Fuc(a1-6)]GlcNAc
How it was run: as §1

[8] = molecular target: Fuc(a1-2)Gal(b1-3)GlcNAc(b1-3)Gal(b1-4)Glc
How it was run: as §1

[9] = molecular target: Fuc(a1-2)Gal(b1-3)GlcNAc(b1-3)GalNAc
How it was run: as §1

[10] = molecular target: Fuc(a1-2)Gal(b1-3)GlcNAc(b1-3)[Fuc(a1-2)Gal(b1-3)GlcNAc(b1-6)]GalNAc
How it was run: as §1

[11] = molecular target: Fuc(a1-2)Gal(b1-3)GlcNAc(b1-3)[Gal(b1-4)GlcNAc(b1-6)]Gal(b1-4)Glc
How it was run: as §1

[12] = molecular target: Fuc(a1-2)Gal(b1-3)GlcNAc(b1-3)[Neu5Ac(a2-6)Gal(b1-4)GlcNAc(b1-6)]Gal(b1-4)Glc
How it was run: as §1

[13] = molecular target: Fuc(a1-2)Gal(b1-3)GlcNAc6S
How it was run: as §1

[14] = molecular target: Fuc(a1-2)Gal(b1-3)[Fuc(a1-4)]GlcNAc
How it was run: as §1

[15] = molecular target: Fuc(a1-2)Gal(b1-3)[Fuc(a1-4)]GlcNAc(b1-2)Man(a1-3)[Fuc(a1-2)Gal(b1-3)[Fuc(a1-4)]GlcNAc(b1-2)Man(a1-3)]Man(b1-4)GlcNAc(b1-4)GlcNAc
How it was run: as §1

[16] = molecular target: Fuc(a1-2)Gal(b1-3)[Fuc(a1-4)]GlcNAc(b1-2)Man(a1-3)[Fuc(a1-2)Gal(b1-3)[Fuc(a1-4)]GlcNAc(b1-2)Man(a1-6)]Man(b1-4)GlcNAc(b1-4)[Fuc(a1-6)]GlcNAc(b1-4)[Fuc(a1-6)]GlcNAc
How it was run: as §1

[17] = molecular target: Fuc(a1-2)Gal(b1-3)[Fuc(a1-4)]GlcNAc(b1-3)[Fuc(a1-3)[Gal(b1-4)]GlcNAc(b1-6)]Gal(b1-4)Glc
How it was run: as §1

[18] = molecular target: Fuc(a1-2)Gal(b1-3)[Fuc(a1-4)]GlcNAc(b1-3)[Gal(b1-4)GlcNAc(b1-6)]Gal(b1-4)Glc
How it was run: as §1

Fuc(a1-2)Gal(b1-4)Glc = molecular target: Fuc(a1-2)Gal(b1-4)Glc
How it was run: as §1

Fuc(a1-2)Gal(b1-4)Glc6S = molecular target: Fuc(a1-2)Gal(b1-4)Glc6S
How it was run: as §1

Fuc(a1-2)Gal(b1-4)GlcNAc = molecular target: Fuc(a1-2)Gal(b1-4)GlcNAc
How it was run: as §1

[19] = molecular target: Fuc(a1-2)Gal(b1-4)GlcNAc(b1-2)Man
How it was run: as §1

[20] = molecular target: Fuc(a1-2)Gal(b1-4)GlcNAc(b1-2)Man(a1-3)[Fuc(a1-2)Gal(b1-4)GlcNAc(b1-2)Man(a1-6)]Man(b1-4)GlcNAc(b1-4)GlcNAc
How it was run: as §1

[21] = molecular target: Fuc(a1-2)Gal(b1-4)GlcNAc(b1-2)Man(a1-3)[Fuc(a1-2)Gal(b1-4)GlcNAc(b1-2)Man(a1-6)]Man(b1-4)GlcNAc(b1-4)[Fuc(a1-6)]GlcNAc
How it was run: as §1

[22] = molecular target: Fuc(a1-2)Gal(b1-4)GlcNAc(b1-2)[Fuc(a1-2)Gal(b1-4)GlcNAc(b1-4)]Man(a1-3)[Fuc(a1-2)Gal(b1-4)GlcNAc(b1-2)Man(a1-6)]Man(b1-4)GlcNAc(b1-4)GlcNAc
How it was run: as §1

[23] = molecular target: Fuc(a1-2)Gal(b1-4)GlcNAc(b1-3)Gal(b1-4)GlcNAc
How it was run: as §1

[24] = molecular target: Fuc(a1-2)Gal(b1-4)GlcNAc(b1-3)Gal(b1-4)GlcNAc(b1-2)Man(a1-3)[Fuc(a1-2)Gal(b1-4)GlcNAc(b1-3)Gal(b1-4)GlcNAc(b1-2)Man(a1-6)]Man(b1-4)GlcNAc(b1-4)GlcNAc
How it was run: as §1

[25] = molecular target: Fuc(a1-2)Gal(b1-4)GlcNAc(b1-3)Gal(b1-4)GlcNAc(b1-3)Gal(b1-4)GlcNAc
How it was run: as §1

[26] = molecular target: Fuc(a1-2)Gal(b1-4)GlcNAc(b1-3)GalNAc
How it was run: as §1

[27] = molecular target: Fuc(a1-2)Gal(b1-4)GlcNAc(b1-3)[Fuc(a1-2)Gal(b1-4)GlcNAc(b1-6)]GalNAc
How it was run: as §1

[28] = molecular target: Fuc(a1-2)Gal(b1-4)GlcNAc(b1-3)[Fuc(a1-3)[Gal(b1-4)]GlcNAc(b1-6)]Gal(b1-4)Glc
How it was run: as §1

[29] = molecular target: Fuc(a1-2)Gal(b1-4)GlcNAc(b1-6)GalNAc
How it was run: as §1

[30] = molecular target: Fuc(a1-2)Gal(b1-4)GlcNAc6S
How it was run: as §1

[31] = molecular target: Fuc(a1-2)Gal(b1-4)[Fuc(a1-3)]GlcNAc
How it was run: as §1

[32] = molecular target: Fuc(a1-2)Gal(b1-4)[Fuc(a1-3)]GlcNAc(b1-2)Man(a1-3)[Fuc(a1-2)Gal(b1-4)[Fuc(a1-3)]GlcNAc(b1-2)Man(a1-6)]Man(b1-4)GlcNAc(b1-4)[Fuc(a1-6)]GlcNAc
How it was run: as §1

[33] = molecular target: Fuc(a1-2)Gal(b1-4)[Fuc(a1-3)]GlcNAc(b1-2)[Fuc(a1-2)Gal(b1-4)[Fuc(a1-3)]GlcNAc(b1-4)]Man(a1-3)[Fuc(a1-2)Gal(b1-4)[Fuc(a1-3)]GlcNAc(b1-2)Man(a1-6)]Man(b1-4)GlcNAc(b1-4)GlcNAc
How it was run: as §1

[34] = molecular target: Fuc(a1-2)Gal(b1-4)[Fuc(a1-3)]GlcNAc(b1-3)Gal(b1-4)[Fuc(a1-3)]GlcNAc
How it was run: as §1

[35] = molecular target: Fuc(a1-2)Gal(b1-4)[Fuc(a1-3)]GlcNAc(b1-3)Gal(b1-4)[Fuc(a1-3)]GlcNAc(b1-3)Gal(b1-4)[Fuc(a1-3)]GlcNAc
How it was run: as §1

[36] = molecular target: Fuc(a1-2)Gal(b1-4)[Fuc(a1-3)]GlcNAc(b1-3)GalNAc
How it was run: as §1

[37] = molecular target: Fuc(a1-2)Gal(b1-4)[Fuc(a1-3)]GlcNAc(b1-3)[Neu5Ac(a2-6)Gal(b1-4)GlcNAc(b1-6)]Gal(b1-4)Glc
How it was run: as §1

[38] = molecular target: Fuc(a1-2)Gal3S(b1-4)GlcNAc
How it was run: as §1

[39] = molecular target: Fuc(a1-2)Gal6S(b1-3)GlcNAc
How it was run: as §1

B1: SBD-G4S3-Fc (protein)
chain: MASIPSSASVQLDSYNYDGSTFSGKIYVKNIAYSKKVTVVYADGSDNWNNNGNIIAASFSGPISGSNYEYWTFSASVKGIKEFYIKYEVSGKTYYDNNNSANYQVSTGGGGSGGGGSGGGGSEFVPRDCGCKPCICTVPEVSSVFIFPPKPKDVLTITLTPKVTCVVVDISKDDPEVQFSWFVDDVEVHTAQTQPREEQFNSTFRSVSELPIMHQDWLNGKEFKCRVNSAAFPAPIEKTISKTKGRPKAPQVYTIPPPKEQMAKDKVSLTCMITDFFPEDITVEWQWNGQPAENYKNTQPIMDTDGSYFVYSKLNVQKSNWEAGNTFTCSVLHEGLHNHHTEKSLSHSPGAA
Fuc(a1-2)Gal
  glycan array binding signal (z-score): 0.018
Fuc(a1-2)Gal(b1-3)GalNAc
  glycan array binding signal (z-score): -0.273
[1]
  glycan array binding signal (z-score): 0.007
[2]
  glycan array binding signal (z-score): -0.029
[3]
  glycan array binding signal (z-score): -0.306
[4]
  glycan array binding signal (z-score): -0.249
[5]
  glycan array binding signal (z-score): -0.266
Fuc(a1-2)Gal(b1-3)GlcNAc
  glycan array binding signal (z-score): -0.007
[6]
  glycan array binding signal (z-score): 0.568
[7]
  glycan array binding signal (z-score): 0.262
[8]
  glycan array binding signal (z-score): -0.327
[9]
  glycan array binding signal (z-score): -0.302
[10]
  glycan array binding signal (z-score): 0.041
[11]
  glycan array binding signal (z-score): -0.03
[12]
  glycan array binding signal (z-score): -0.478
[13]
  glycan array binding signal (z-score): -0.371
[14]
  glycan array binding signal (z-score): -0.274
[15]
  glycan array binding signal (z-score): 0.368
[16]
  glycan array binding signal (z-score): 0.339
[17]
  glycan array binding signal (z-score): -0.387
[18]
  glycan array binding signal (z-score): -0.509
Fuc(a1-2)Gal(b1-4)Glc
  glycan array binding signal (z-score): -0.193
Fuc(a1-2)Gal(b1-4)Glc6S
  glycan array binding signal (z-score): -0.196
Fuc(a1-2)Gal(b1-4)GlcNAc
  glycan array binding signal (z-score): -0.284
[19]
  glycan array binding signal (z-score): -0.263
[20]
  glycan array binding signal (z-score): 0.181
[21]
  glycan array binding signal (z-score): 0.577
[22]
  glycan array binding signal (z-score): 0.196
[23]
  glycan array binding signal (z-score): -0.45
[24]
  glycan array binding signal (z-score): 1.23
[25]
  glycan array binding signal (z-score): -0.034
[26]
  glycan array binding signal (z-score): -0.406
[27]
  glycan array binding signal (z-score): 0.141
[28]
  glycan array binding signal (z-score): -0.333
[29]
  glycan array binding signal (z-score): 0.307
[30]
  glycan array binding signal (z-score): -0.428
[31]
  glycan array binding signal (z-score): 0.134
[32]
  glycan array binding signal (z-score): 0.229
[33]
  glycan array binding signal (z-score): 0.36
[34]
  glycan array binding signal (z-score): -0.382
[35]
  glycan array binding signal (z-score): -0.471
[36]
  glycan array binding signal (z-score): 0.32
[37]
  glycan array binding signal (z-score): -0.03
[38]
  glycan array binding signal (z-score): -0.519
[39]
  glycan array binding signal (z-score): -0.225
